Reference: article PMC4336329 (PLoS ONE, 2015)
Among all 310,000 compounds or so, about 14,000 (4.5%) showed an effect of 50% or more. Effects have a minus sign here. Some of the results follow.

These molecules were tested against human ether-à-go-go-related gene (hERG) potassium channel (human, UniProt Q12809) (assay: primary screen, population patch clamp on CHO cells stably expressing hERG).
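Further: peak tail current of the secondary pulse compared with the same well before compound.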

Chain of human ether-à-go-go-related gene (hERG) potassium channel (Q12809 whole entry, looked up): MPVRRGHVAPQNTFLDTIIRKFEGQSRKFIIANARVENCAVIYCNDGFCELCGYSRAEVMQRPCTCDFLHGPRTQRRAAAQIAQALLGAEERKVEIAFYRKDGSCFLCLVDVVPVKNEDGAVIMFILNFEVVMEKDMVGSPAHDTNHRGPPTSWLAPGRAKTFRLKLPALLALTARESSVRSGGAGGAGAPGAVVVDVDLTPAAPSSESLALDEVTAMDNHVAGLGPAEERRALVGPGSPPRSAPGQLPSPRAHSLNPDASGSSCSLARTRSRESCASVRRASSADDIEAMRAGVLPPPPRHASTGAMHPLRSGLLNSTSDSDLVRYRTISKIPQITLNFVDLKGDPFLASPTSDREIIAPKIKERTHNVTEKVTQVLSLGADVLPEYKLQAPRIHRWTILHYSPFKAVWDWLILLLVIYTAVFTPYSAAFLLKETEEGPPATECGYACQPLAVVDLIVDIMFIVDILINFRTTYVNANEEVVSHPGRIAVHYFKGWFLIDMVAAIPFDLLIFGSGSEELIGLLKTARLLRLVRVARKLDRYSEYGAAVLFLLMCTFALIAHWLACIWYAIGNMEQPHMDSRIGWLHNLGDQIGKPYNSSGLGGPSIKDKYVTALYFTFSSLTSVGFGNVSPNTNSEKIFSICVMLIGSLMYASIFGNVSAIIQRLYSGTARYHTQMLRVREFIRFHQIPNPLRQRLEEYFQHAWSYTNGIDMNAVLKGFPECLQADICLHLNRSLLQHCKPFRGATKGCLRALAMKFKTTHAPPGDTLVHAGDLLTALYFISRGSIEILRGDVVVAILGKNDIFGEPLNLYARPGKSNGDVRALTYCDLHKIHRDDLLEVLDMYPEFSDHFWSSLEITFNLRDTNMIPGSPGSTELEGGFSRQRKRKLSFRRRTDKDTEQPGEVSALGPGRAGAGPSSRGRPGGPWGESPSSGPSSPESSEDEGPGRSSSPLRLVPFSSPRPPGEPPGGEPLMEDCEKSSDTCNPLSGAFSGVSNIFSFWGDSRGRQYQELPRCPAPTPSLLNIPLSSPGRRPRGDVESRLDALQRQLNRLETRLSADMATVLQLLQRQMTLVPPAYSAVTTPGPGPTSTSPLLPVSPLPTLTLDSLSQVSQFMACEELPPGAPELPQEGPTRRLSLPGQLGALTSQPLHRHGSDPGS

Row | Compound | hERG current change (%, negative = inhibition) at 10uM [%]
1 | Cn1ccc(C(=O)OCC(=O)Nc2cccc(Cl)c2)n1 | -1.53
2 | COc1ccc(OC)c(N2C(N)=NC(N)=NC23CCCC3)c1.Cl | 24.4
3 | Cn1nnnc1SCCNC(=O)C1CCC(=O)N(CCc2cccc(F)c2)C1 (centres unmarked) | 18
4 | Cc1ccc2c(c1)C(c1ccccc1)N(C(=O)c1ccc3c(c1)OCO3)CC(=O)N2 (centres unmarked) | -39.5
5 | Cc1ccc(NC(=O)CSc2nnc3ccc(-c4cccnc4)nn23)cc1 | -49.3
6 | CC(C)(C)OC(=O)NCCCC[C@H](NC(=O)c1nc[nH]c1C(=O)N1CCN(C(=O)OC(C)(C)C)CC1)C(=O)OC(C)(C)C | 14.7
7 | Cc1nn(-c2ccccc2)c2[nH]c(=O)c(CNCc3ccc4c(c3)OCO4)cc12 | -28.7
8 | O=C(Cc1ccc([N+](=O)[O-])cc1)NCc1ccccc1Cl | 20
9 | CCOc1ccccc1C(=O)Nc1cccc(-c2ccc3nncn3n2)c1 | -30.3
10 | Cc1nc2ncnn2c(C)c1CCC(=O)N1CCOCC1 | 1.89
11 | CCCN1CCN(c2ncnc3scc(C4COc5ccccc5O4)c23)CC1 (centres unmarked) | -43.3
12 | Oc1oc(-c2ccccc2)nc1C=Nc1ccccc1 | 2.8
13 | CC(C)(C)c1ccc(OCCNC(=S)NC(=O)c2cccnc2)cc1 | -16.3
14 | COc1ccc(S(=O)(=O)N(CC(=O)NCC2CCCO2)Cc2ccccc2)cc1C (centres unmarked) | -16.8
15 | COc1ccc(CC(=O)Nc2ccc(S(=O)(=O)Nc3cc(OC)nc(OC)n3)cc2)cc1 | 16.2
16 | COc1ccc(Br)cc1C(=O)N/N=C/c1ccc2c(c1)n(C)c(=O)n2C | 15.9
17 | O=C(Nc1ccc(F)cc1)c1cccc(NC(=O)C2C3CC4OC(=O)C2C4C3)c1 (centres unmarked) | -34.3
18 | CCOC(=O)c1sc(NC(=O)COC(=O)CNC(=O)c2ccco2)c(C(=O)OCC)c1C | 4.08
19 | CCN(CC)CCOC(=O)c1ccc(NC(=O)c2ccc(Cl)c(S(=O)(=O)N3CCCCCC3)c2)cc1.Cl | 13.7
20 | COc1ccc2[nH]c(=O)c(CN(C(=O)NC3CCCCC3)C3CCCC3)cc2c1 | -16.6
21 | Cn1c2c(c(=O)n(C)c1=O)C(c1ccccc1OC(F)F)C1=C(CCCC1=O)N2 (centres unmarked) | 0.976
22 | Cc1csc(SC(C)C(=O)NCC2CCCO2)n1 (centres unmarked) | -11.7

Row | Compound | hERG current change (%, negative = inhibition) at 10uM [%]
23 | CC(C)C[C@H](NC(=O)NCCC1=CCCCC1)C(=O)O | -4.82
24 | O=C(Nc1cc(Cl)ccc1O)C1CC(c2c(F)cccc2Cl)=NO1 (centres unmarked) | 23.4
25 | O=C(CCNC(=O)C1CCN(S(=O)(=O)c2ccc(F)cc2)CC1)NCc1ccc(F)cc1 | -3.96
26 | COC(=O)CSc1nnc(SCc2ccc(OC)cc2)s1 | 12.1
27 | COc1cc(/C=C/C(=O)c2c(O)cc(C)oc2=O)cc(OC)c1O | 24.5
28 | CCSc1nnc(NC(=O)NC(CC)(C(F)(F)F)C(F)(F)F)s1 | 14.8
29 | COc1ccc(/C=N/N=C2/NC(=O)C(CC(=O)O)S2)cc1OS(=O)(=O)c1ccccc1 (centres unmarked) | 25.7
30 | O=C(COc1ccc2ccccc2c1)NCC(=O)N/N=C/c1ccco1 | -2.74
31 | CCn1nc(C(=O)NNC(=O)c2ccccc2)c2ccccc2c1=O | -1.09
32 | COc1ccc(-c2cc(C(=O)O)sc2C)cc1 | 12.1
33 | COc1ccc(CCCC(=O)N/N=C\c2cccs2)cc1 | 27.2
34 | CC(=O)N1c2ccc(S(=O)(=O)N3CCC(C(=O)N4CCCC(C)C4)CC3)cc2CC1C (centres unmarked) | 13.7
35 | Cc1ccc(S(=O)(=O)NC(=O)Nn2c(C)nnc2C)cc1 | 28.3
36 | COc1ccc(CCNC(=O)C2CC(=O)N(c3ccc(C(C)(C)C)cc3)C2)cc1OC (centres unmarked) | -6.6
37 | O=C(NCCc1ccco1)C(=O)NCCC1CCCCN1S(=O)(=O)c1ccccc1 (centres unmarked) | -34.6
38 | Cc1ccc(NC2=Nc3ccccc3CC2)cc1 | -18.2
39 | Cc1c(Cl)c([N+](=O)[O-])nn1CC(=O)NCc1cccnc1 | 15.7
40 | O=C(N/N=C/c1cccc2ccccc12)c1ccc(CN2CCOCC2)cc1 | -12.6
41 | Cc1ccc(C(=O)N[C@@H](C)CN2C3=NC[C@H](C(C)C)N3C[C@H]2Cc2ccc(O)cc2)cc1Br | -77.7
42 | O=C1CSC(c2ccccc2)N1c1ccc(F)cc1F (centres unmarked) | 4.37
43 | Cc1c(NC(=O)C(c2ccccc2)c2ccccc2)cccc1C(=O)O | 16
44 | FC(F)(F)c1cc(CCN2C(=S)NC[C@@H]2c2ccccc2)cc(C(F)(F)F)c1 | 6.67

Row | Compound | hERG current change (%, negative = inhibition) at 10uM [%]
45 | COCCNC(=O)C(c1ccc(O)cc1)N(C(=O)CCC(=O)Nc1nccs1)c1cccc(C)c1 (centres unmarked) | 19.5
46 | C=CCn1cnc2c(nnn2Cc2ccc(F)cc2)c1=O | 12.9
47 | Cc1cccc(C)c1OCC(=O)Nc1cccc(NC(=O)c2ccco2)c1 | -23.1
48 | COc1ccc(NC(=O)C2CCCN2C(=O)NCc2ccccc2)cc1 (centres unmarked) | 12.2
49 | CC(=O)c1c(N2CCN(C)CC2)[nH]c(-c2ccccc2)nc1=S | -13.2
50 | CC1(C)CC(=O)C=C(Nc2ccc(S(N)(=O)=O)cc2)C1 | 11.4
51 | Cc1[nH]n(-c2ccc(Cl)cc2)c(=O)c1/C=N/c1nnc(-c2ccccc2)s1 | 22.9
52 | CN(C)c1ccc(C=Nc2ccccc2C(N)=O)cc1 | -0.385
53 | O=C(N=C1SC2CS(=O)(=O)CC2N1c1ccccc1)C1CCCCC1 (centres unmarked) | 11.9
54 | COc1ccc(C(=O)N/N=C(\C)CC(=O)NC2CCCCC2)c(OC)c1 | -10.3
55 | c1ccc(CNCCN2CCNCC2)nc1 | 4.01
56 | COc1cccc(C2Nc3ccccc3C(=O)N2c2ccc(F)cc2)c1O (centres unmarked) | 7.47
57 | Cc1cccc(CSc2nn3c(=O)c(C)nnc3s2)c1 | -6.93
58 | O=C(C1=C(O)C(=O)N(c2ccccc2)C1c1ccc([N+](=O)[O-])cc1)c1cccs1 (centres unmarked) | 9.84
59 | Cc1ccc(C(=O)COC(=O)C(C)N2C(=O)C3C4C=CC(C4)C3C2=O)cc1C (centres unmarked) | 6.78
60 | Cc1ccc(NS(=O)(=O)c2ccc(C(=O)N3CCN(c4ccccn4)CC3)cc2)cc1 | -12.5
61 | CCCn1nnnc1NCc1ccc(SC)cc1 | 14.1
62 | COc1ccc(/C=C/C(=O)NCCCNC(=O)/C=C/c2ccc(OC)c(OC)c2)cc1OC | -26.1
63 | O=C(COc1coc(CN2CCc3ccccc3C2)cc1=O)Nc1cccc(Cl)c1 | -0.853
64 | COc1ccc(C2/C=C\CN(S(=O)(=O)c3cccc4cccnc34)CC(=O)N2Cc2ccc(F)cc2)cc1 (centres unmarked) | 1.44
65 | O=C(Nc1ccc(Br)cc1)c1ccc(CSC2=NCCS2)cc1 | 5.57
66 | O=C(Oc1ccc(Cl)cc1)N1CCCCC1 | 1.42

Row | Compound | hERG current change (%, negative = inhibition) at 10uM [%]
67 | CC1CCN(C(=O)C2CCN(S(=O)(=O)c3cccc4nonc34)CC2)CC1 | -21.8
68 | CCOc1ccc2[nH]c(C(=O)N/N=C/c3cccc(OC)c3OC)cc2c1 | -5.55
69 | O=C(c1cccs1)c1cn(CC(=O)N2CCc3ccccc3C2)c2ccccc12 | 7.09
70 | Cl.O=C(c1ccco1)N(CCCN1CCOCC1)c1nc(-c2ccc(Cl)cc2)cs1 | -13.4
71 | CC1=NNC(=O)C1Cc1c(Cl)cccc1Cl (centres unmarked) | 5.03
72 | CC(C)(C)C(=O)CSc1nc2c(c(-c3cccs3)c1C#N)CCC2.CCO | 16.1
73 | COCCCNC(=S)N/N=C/c1ccc(N(C)C)cc1 | 15.6
74 | O=c1c2sc3nc(N4CCOCC4)c4c(c3c2ncn1-c1ccccc1)CCCC4 | 20.7
75 | COc1ccc(OCC(=O)Nc2ccc3c(c2)nc(CN2CCCC2)n3C)cc1 | -26.9
76 | NC(=O)c1ccsc1NC(=O)c1ccc(N2CCCC2=O)cc1 | 5.29
77 | O=C(OCc1cccc(F)c1)c1cc2ccccc2cc1O | 12.3
78 | CCc1ccc(C(CNC(=O)c2ccc3c(=O)n(-c4ccccc4F)c(=S)[nH]c3c2)N(C)C)cc1 (centres unmarked) | -4.7
79 | COc1ccc(Nc2nccc3c2ncn3C)cc1 | 10.6
80 | Cc1csc(SCC(=O)NCc2cccc(Cl)c2)n1 | -7.05
81 | CC1(C)COC(c2ccc(F)c([N+](=O)[O-])c2)=N1 | -10.3
82 | O=C1CCCN1C(=O)COc1cc(F)ccc1[N+](=O)[O-] | 5.56
83 | Cc1cc(OCC(=O)O)c2cccc(C)c2n1.Cl | 11.2
84 | CC1CCCC(C)N1CCCNC(=O)c1ccc2c(c1)NC(=O)c1ccccc1S2 (centres unmarked) | 4.54
85 | Cc1ccc(S(=O)(=O)NC(=O)Nc2ncc3c(n2)CC(c2ccco2)CC3=O)cc1 (centres unmarked) | -2.39
86 | Cc1[nH]c2ccc(C(=O)OC(C)C(=O)NC3CCCCC3C)cc2c1C (centres unmarked) | -3.03
